These results are taken from PubChem BioAssay (NCI).

Where “and” joins values, the source holds several entries; their conditions need not be identical. Equal entries are not always repeated.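 Each compound was tested at five concentrations against cells in 96-well plates for 48 hours. GI50: concentration for 50% inhibition of growth. TGI denotes the concentration required for complete inhibition of growth.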 Square brackets hold non-standard residues; d marks the D form. Peptide text beside a SMILES is read from it. * marks the point of attachment. Octanoyl = CCCCCCCC(=O)*; Aib = CC(C)(N)C(=O)O; tBu = CC(C)(C)*

The experiment has as its system NCI-H322M lung. As to the kind of experiment: NCI anticancer screen, dose series, 48 h.
Consider `NC1=N/C(=C2/CCNC(=O)c3[nH]c(Br)cc32)C(=O)N1`, for which the GI50 is 12.6 µM and 38.3 µM; the TGI is more than 100 µM.
`COc1cc([C@@H]2c3[nH]c4ccccc4c3C(Nc3ccc([N+](=O)[O-])cc3)[C@H]3COC(=O)N23)cc(OC)c1O` (stereo not given in full) returned a TGI of more than 31.7 µM.
Regarding `COc1cc(C(=O)c2cc3c(cc2C)OCO3)cc(OC)c1OC`, the GI50 was 0.794 µM and the TGI is more than 100 µM.
`N#CCCN(c1ccc(-c2nnc(NC(=O)CNNC(=O)CC(=O)Nc3ccccc3)s2)cc1)S(=O)(=O)c1ccccc1`: the TGI was more than 100 µM.
`O=C(CCc1cccc(O)c1)NCCc1ccc(O)cc1`: the TGI was more than 100 µM.
Still for that read-out and setting: the same measure for `CCCCCCCC(=O)NC(C)(C)C(=O)NC(COC(C)(C)C)C(=O)NC(CC(C)C)C(=O)NC(C)(C)C(=O)NC(COC(C)(C)C)C(=O)NC(COC(C)(C)C)C(=O)NC(CC(C)C)C(=O)NC(C)(C)C(=O)NC(COC(C)(C)C)C(=O)NC(C(=O)NC(CC(C)C)C(=O)OC)C(C)CC` (stereo not given) (Octanoyl-[Aib]S(tBu)L[Aib]S(tBu)S(tBu)L[Aib]S(tBu)IL-OMe; configuration not given here): more than 25 µM.
Still for that read-out and setting: the same measure for `COc1cc2c(c3c1c(=O)c1ccccc1n3C)C=CC1(CCCCC1)O2`: more than 10 µM; for `CN(C)CC1(C)CC/C(=C\c2ccccc2)C1=O` (stereo not given): more than 100 µM.
As for `Cn1cc(C2=C(c3cn(CCN)c4ccccc34)C(=O)NC2=O)c2ccccc21`, the GI50 is 6.71 µM and the TGI was more than 21.4 µM.
`CCOC(=O)c1cn(Cc2ccccc2)c(=O)n1Cc1ccccc1` gave a TGI of more than 100 µM.
On the same count and under the same terms, the same measure for `CC(C)NCC(O)c1ccc(OCc2ccccc2)c(OCc2ccccc2)c1-c1ccccc1` (stereo not given): 3.01 µM; for `COc1ccc(O)c(C=NCCCN=Cc2cc(OC)ccc2O)c1`: 62.4 µM; for `Cc1cc(Cl)cc2c1NC(=O)C2(O)C(C)C(=O)c1ccc(Cl)cc1` (stereo not given): more than 100 µM.
The same measure, in the same setting: under `COc1ccc2nc3ccccc3c(NCCCCCCN(C)CCCl)c2c1` stands 4.33 µM.
Still for that read-out and setting: the same measure for `CC(C)(C)C(=O)C(C(c1ccccc1)N1CCOCC1)N1CCOCC1` (stereo not given): more than 100 µM.
The compound `CC(C)n1c2c([n+](C)c1/C=C/c1ccccc1)C(=O)c1ccccc1C2=O` showed a TGI of 1.93 µM.
Compound `COC(=O)[C@]1(C)CCC[C@@]2(C)C1CCC1=CC3(C(C)C)CCC12OO3` (stereo not given in full) yielded a TGI of more than 100 µM.
On the same count and under the same terms, under `CN(C)CCCc1c[nH]c2ccccc12` stands more than 100 µM.
As to `N#Cc1ccnc(N2C(=O)CC[C@H]2C(=O)N(c2cncc(F)c2)[C@H](C(=O)NC2CC(F)(F)C2)c2ccccc2Cl)c1`, the GI50 is 84.4 µM and the TGI was more than 100 µM.
For `C=C1C(=O)O[C@H]2[C@H]1CC/C(COC(=O)NCc1c[nH]c3ccc(Cl)cc13)=C\CC[C@@]1(C)O[C@@H]21`, in that order: 2.58 µM and 8.22 µM.
Regarding `O=C(O)CC/C(=N\Nc1nsc2ccccc12)c1ccc(Cl)cc1`, the TGI is more than 79.9 µM.
Take `CNC(=O)CCCN(C)C(=O)CCCCC(=O)N(C)C`: the TGI is more than 100 µM.
On the same count and under the same terms, under `Cc1n[nH]c(=O)n1/N=C/c1c[nH]c2ccccc12` stands more than 100 µM; under `c1ccc2c(c1)Nc1nc3nonc3nc1N2`, more than 100 µM.
Same read-out and setting: under `Cn1c2ccccc2c(=NNc2ccccc2C(=O)O)c2ccccc21` stands 45.7 µM; under `O=C(NC1=NC2C=CC([N+](=O)[O-])=CC2S1)C(=O)Nn1c(=S)[nH]c2ccccc2c1=O` (stereo not given), more than 100 µM.
`O=c1oc2ccc3ccccc3c2cc1-c1nc2ccccc2o1` displayed a TGI of more than 55.2 µM.
On to `FC(F)(Sc1ccccc1)c1nc2ccccc2o1`, for which the TGI was more than 100 µM.
On the same count and under the same terms, under `CN(C1=NCCO1)c1cccc2c1CCCC2` stands more than 10 µM; under `O=[n+]1c2ccccc2n([O-])c2cc(Br)ccc21`, more than 100 µM; under `c1ccc(CN(Cn2cccn2)Cn2cccn2)nc1`, more than 100 µM.
Take `COc1ccc(C(c2c(O)c3ccccc3n(C)c2=O)c2c(O)c3ccccc3n(C)c2=O)cc1`: the TGI is more than 100 µM.
For `COc1ccc2c(c1)CC[C@@H]1[C@@H]2CC[C@]2(C)C(c3ccco3)=C(C=O)C[C@@H]12`, the GI50 is 18.6 µM and the TGI was 49.1 µM.
On to `Cc1ccc(C)c(NC(=O)CC/C(=N\NC(=O)C(N)=O)C(C)C(=O)c2ccc(O)cc2)c1` (stereo not given), for which the TGI was more than 100 µM.
Still for that read-out and setting: under `CN(C)CCNC(=O)c1cccc2[nH]c(-c3ccccc3)nc12` stands 43.8 µM.
The same measure, in the same setting: under `CN(C)c1nc(NN)c2c(-c3ccccc3)c(-c3ccccc3)oc2n1` stands more than 100 µM.
`COc1cc2nc(Nc3cccc(F)c3)nc(Nc3cc(C)[nH]n3)c2cc1OC`: the GI50 is 1.75 µM and the TGI came out at 3.29 µM.
For `CCCCCCCC[N+](C)(CCCCCCCC)CCCCCCCC`, in that order: 1.63 µM and 3.06 µM.
In turn, `c1cncc(-c2ncc3cccnc3n2)c1` displayed a TGI of more than 100 µM.
The same measure, in the same setting: the same measure for `O=S(CCCl)c1c2ccccc2nc2ccccc12` (stereo not given): more than 100 µM.
On to `COc1ccc2c(c1)CCC1C2CC[C@]2(C)/C(=N/OC(=O)Cc3ccccc3)CCC12` (stereo not given in full), for which the GI50 was 26 µM and the TGI was found to be 51.3 µM.
As to `C=C1c2nc3ccccc3n2C=C(c2ccccc2)N1c1ccccc1`, the TGI was more than 100 µM.
For `Cc1ccc(S(=O)(=O)N2CCc3ccc(O)c4c3C2Cc2cc(Cl)ccc2-4)cc1` (stereo not given), the GI50 is 1.91 µM and the TGI was 17.2 µM.
With `O=C(COc1ccccc1)NS(=O)(=O)c1ccccc1`, the TGI was more than 100 µM.
Still for that read-out and setting: under `N#Cc1cc([N+](=O)[O-])ccc1NC(=O)C(=O)C(C(=O)/C=C/c1ccccc1)C1OC(=O)c2ccccc21` (stereo not given) stands more than 100 µM; under `CCOC(=O)c1c(-c2ccc(OC)cc2)c(C#N)c(=S)n(C2OC(CO)C(O)C(O)C2O)c1-c1ccccc1` (stereo not given), more than 100 µM; under `NCCCN1CCN(CC(=O)O)CCN(CCCN)CCN(CC(=O)O)CC1`, more than 100 µM.
Same read-out and setting: under `CC(CO)C1=CC(C#CCOCc2ccccc2)N(C(=O)Oc2ccccc2)c2ccccc21` (stereo not given) stands more than 100 µM.
`CCOC(=O)c1sc(=S)c2c(C(=O)OCC)c(C(=O)OCC)sc2c1C(=O)OCC`: the GI50 is 16.6 µM and the TGI turned out to be 41.6 µM.
With `O=c1[nH]nc(Cc2ccc(Cl)cc2)n1/N=C\CC/C=N\n1c(Cc2ccc(Cl)cc2)n[nH]c1=O`, the TGI was more than 100 µM.
Same read-out and setting: under `Cc1ccc(Cl)c(NC(=O)C(=O)C(C(=O)c2ccncc2)C2OC(=O)c3ccccc32)c1` (stereo not given) stands more than 100 µM.
Consider `CCCN(CCC)c1ccc(/C=N/NC(=O)c2cccnc2)c(Cl)c1`, for which the GI50 was 27.7 µM and the TGI is more than 100 µM.
`COc1ccc2c(c1)OC[C@@H]1c3cc4c(cc3O[C@H]21)OCO4`: the TGI is more than 100 µM.
`CCCCCCCC/C=C\CCCCCCCC(=O)NCCN(CCN)C(=O)CCCCCCC/C=C\CCCCCCCC` displayed a TGI of more than 100 µM.
`O=c1c2ccccc2c2nc3ccccc3nc2n1C1CCCCC1` showed a TGI of more than 100 µM.
Same read-out and setting: the same measure for `COc1ccc(/C=C2\CCC(C)(CN(C)C)C2=O)cc1` (stereo not given): more than 100 µM.
Same read-out and setting: under `CC1OC(OCC2COC(O)(Oc3c(-c4ccc(O)c(O)c4)oc4cc(O)cc(O)c4c3=O)C(O)C2O)C(O)C(O)C1O` (stereo not given) stands more than 100 µM; under `CCN(CC)C(=O)COc1ccc(Br)cc1Br`, more than 100 µM.
For `CCOC(=O)c1c(C(F)(F)F)n([O-])c2ccc(OC)cc2[n+]1=O`, the GI50 is 10.4 µM and the TGI was more than 100 µM.
Take `N#CCCN(CCC#N)c1ccc(/C=C2\N=C(c3ccccc3)N(c3ccccn3)C2=O)cc1`: the TGI was more than 100 µM.
Same read-out and setting: under `NCCNC(=S)S` stands more than 100 µM; under `C[C@@]12CCC(=O)C=C1CC[C@H]1C2=CC[C@]2(C)C1CC[C@@]2(C)O` (stereo not given in full), more than 100 µM.
With `COC(=O)CCC/C=C\C[C@H]1C=CC(=O)/C1=C/C[C@@H](O)C/C=C\CC(F)(F)F`, the GI50 was 3.25 µM and the TGI was 11 µM.
On to `COC(=O)C1(Cc2ccccc2)Cc2ccc3c(c2C1=O)CCC3` (stereo not given), for which the TGI is more than 100 µM.
The same measure, in the same setting: under `CC(=O)Oc1cc2c(cc1OC(C)=O)[C@H]1CC[C@]3(C)[C@@H](OC(C)=O)CC[C@H]3[C@@H]1CC2` stands 23.2 µM; under `CC12CCC[C@@](C)(C(=O)OC3OC(CO)C(O)C(O)C3O)[C@H]1CCC13CC4CC(OC4(CO)[C@H]1O)[C@@H]23` (stereo not given in full), more than 100 µM.
Still for that read-out and setting: the same measure for `CN(C)c1ccc(/C=C(\NC(=O)c2ccccc2)C(=O)NC(CCC(=O)O)C(=O)O)cc1` (stereo not given): more than 100 µM.
With `CCCc1nc2c(C)cc(-c3nc4ccccc4n3C)cc2n1Cc1ccc(-c2ccccc2C(=O)O)cc1`, the GI50 is more than 100 µM and the TGI was more than 100 µM.
`CCOC(=O)C1=c2[nH]c3cccc4cccc(c43)n2C=C(C(C)=O)C1CC(C)=O` (stereo not given): the TGI is more than 100 µM.
On the same count and under the same terms, under `O=[N+]([O-])c1nccn1COCCF` stands more than 100 µM.
Same read-out and setting: under `CC(=O)O[C@H]1C(=O)[C@@]2(C)C(C(OC(=O)c3ccccc3)[C@]3(O)CC(OC(=O)C(O)C(NC(=O)c4ccc(C)cc4)c4ccccc4)C(C)=C1C3(C)C)[C@]1(OC(C)=O)CO[C@@H]1C[C@@H]2O` (stereo not given in full) stands 10.9 µM.
On to `C[C@H]1[C@H](C)CC[C@]2(C(=O)O)CC[C@]3(C)C(=CC[C@@H]4[C@@]5(C)C/C(=C/c6ccco6)C(=O)C(C)(C)[C@@H]5CC[C@]43C)[C@H]12`, for which the GI50 was 3.24 µM and the TGI turned out to be 16 µM.
The compound `CC1CCC2C(C(=O)O[C@H]3C4CCO[C@@H](OC5OC(CO)C(O)C(O)C5O)C4[C@@]4(CO)O[C@@H]34)=CO[C@@H](OC3OC(CO)C(O)C(O)C3O)C12` (stereo not given in full) gave a TGI of more than 10 µM.
In the case of `COc1cc(-c2cc(-c3nc4ccc(Cl)cc4[nH]3)[nH]n2)cc(OC)c1OC`, the GI50 is 3.65 µM and the TGI turned out to be 14.7 µM.
`CS(=O)(=O)Nc1ccc(Nc2c3ccccc3nc3ccccc23)cc1` gave a TGI of 28 µM.
The same measure, in the same setting: the same measure for `c1ccc(/N=N/Nc2ccc(-c3nc4ccccc4[nH]3)cc2)nc1`: 48.9 µM.
For `COc1cc(/C=C2\COc3ccc(O)c(O)c3C2=O)cc(OC)c1`, the GI50 was 2.65 µM and the TGI was 11.9 µM.
Compound `CCCCCCCCCCCCCCCCOCC(COP(=O)([O-])OCC[N+](C)(C)C)OCCCCCCCCCCCCCCCC` (stereo not given) had a TGI of more than 100 µM.
Still for that read-out and setting: the same measure for `CCOC(=O)CCC(NC(=O)c1ccc(OCc2nc3ccccc3n3cccc23)cc1)C(=O)OCC` (stereo not given): more than 100 µM; for `O=C1C=C(NCCc2cc(Br)c(O)c(Br)c2)C(=O)c2ncccc21`: 5.54 µM; for `CC(=O)N[C@H]1CCCC[C@@H]1OC(C)=O`: more than 100 µM.
Regarding `CC(C)(C)c1ccc(C(O)c2ccc(C(C)(C)C)cc2)cc1`, the TGI is 33.2 µM.
